About 6,400 (1.6%) of roughly 410,000 compounds were called active. The shares of active, inactive and inconclusive entries below differ from those in the screen. Calls follow the shape of the dose curve; as a rule, active = well fitted inhibition curve with a large enough effect; inconclusive = small, poorly fitted or top-dose-only effect; inactive = no such curve, though single readings can be large or run the other way. No potency is given beside an inconclusive call; the fits are too rough.
Biological target: Glucagon-like peptide 1 receptor (Homo sapiens) (UniProt P43220)
Sequence of UniProt P43220 (P43220 whole entry, looked up): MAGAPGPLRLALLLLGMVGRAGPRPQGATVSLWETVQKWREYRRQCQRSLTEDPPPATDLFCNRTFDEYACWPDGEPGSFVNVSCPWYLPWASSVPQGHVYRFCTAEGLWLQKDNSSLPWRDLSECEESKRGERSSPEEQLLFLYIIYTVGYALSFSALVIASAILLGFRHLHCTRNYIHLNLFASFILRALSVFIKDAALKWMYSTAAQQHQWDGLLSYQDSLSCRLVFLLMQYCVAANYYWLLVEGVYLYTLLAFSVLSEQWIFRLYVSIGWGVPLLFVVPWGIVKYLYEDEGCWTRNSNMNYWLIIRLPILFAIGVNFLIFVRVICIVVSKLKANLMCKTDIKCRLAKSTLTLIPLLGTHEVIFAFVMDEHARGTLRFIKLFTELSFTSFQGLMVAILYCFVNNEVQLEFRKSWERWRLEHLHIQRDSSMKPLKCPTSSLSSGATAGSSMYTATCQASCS
Assay: qHTS of GLP-1 Receptor Inverse Agonists (Inhibition Mode); also: nearly all actives have a fitted effect of over 55% in size
Conditions: HEK293 GLP-1R CRE-luciferase, luminescence, 24 h, GLP-1R form is constitutively active; activity change, negative = inhibition: at 38.3 µM (top of the series) unless noted
Procedure, shortened: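 Assay principle: reduced luminescence from a cAMP-responsive reporter in HEK293 cells co-expressing a constitutively active GLP-1R. Conditions: 24 hr compound incubation, 37 deg C, 5% CO2.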
% is scaled to controls: 0 for no effect and ±100 for the full control effect; potency is read from the fitted curve at half-maximal effect; tags tell the direction and shape of the fitted curve.

With `CC(=O)Nc1ccc(N)cc1` as the molecule, how does the “activity change, negative = inhibition” value read?
The value was inactive: -0.0437%.

`CCCC1C(=O)N(c2ccccc2)C1c1ccccc1` (configuration not stated) was tested. Which Potency did it give?
Its Potency is inconclusive [inhibitor, partial curve].

Which Potency does the source give for `CC(C)n1c(O)c(/C=C2\C=NN=C2c2ccccc2)sc1=S` here?
The Potency was inconclusive [inhibitor, partial curve, poor fit].

For `Nc1nc2ccc(Oc3ccccc3)cc2s1`, which Potency is on record?
The Potency was inconclusive [inhibitor, single point].

Which Potency does the source give for `CC(C)(C)NC(=O)C[C@H]1C[C@H](C(=O)N2CCCCC2)[C@@]2(C)c3[nH]c4cc(-c5ccco5)ccc4c3CCN2C1=O` here?
Its Potency is inconclusive [inhibitor, single point].

How did the Potency turn out when `O=C(NNC(=O)c1ccc2c(c1)OCO2)NC12CC3CC(CC(C3)C1)C2` was run?
The Potency was inconclusive [inhibitor, partial curve, poor fit].

`O=C(COc1ccccc1CNCc1ccccc1)Nc1ccccc1` was tested. Which Potency did it give?
Its Potency is inconclusive [inhibitor, partial curve, poor fit].

How did the Potency turn out when `COC(=O)c1c(C)[nH]c(C(=O)OCC(=O)c2c(N)n(CC(C)C)c(=O)n(C)c2=O)c1C` was run?
Its Potency is inconclusive [inhibitor, single point].

How did the Potency turn out when `C=C(C)COc1ccc(-c2ncncc2-c2ccc(Cl)cc2)c(O)c1` was run?
The Potency was inconclusive [inhibitor, single point].

For `CCOC(=O)C1(CCCc2ccccc2)CCN(C(=O)C2CCCO2)CC1` (configuration not stated), which Potency is on record?
The Potency was inconclusive [inhibitor, single point].

`Cc1ccnc(NC(=O)C2CCC(CNc3c(N4CCCC4)c(=O)c3=O)CC2)c1` (configuration not stated) was tested. Which Potency did it give?
The Potency was inconclusive [inhibitor, partial curve, poor fit].

Which Potency does the source give for `Cc1ccc(-n2nc(C)c(C(=O)NCCCN3CCN(c4ccc(F)cc4)CC3)c2-n2cccc2)cc1` here?
Its Potency is inconclusive [inhibitor, partial curve, poor fit].

`COC(=O)c1ccc(OCC(O)CN2CCN(C(=O)c3ccco3)CC2)c(OC)c1` (configuration not stated) was tested. Which “activity change, negative = inhibition” value did it give?
Its value is inactive: 13.9%.

Which Potency does the source give for `Cc1ccc(NC(=O)CNC(=O)c2cccs2)cc1S(=O)(=O)Nc1ccc(Cl)cc1` here?
The Potency was inconclusive [inhibitor, single point].

With `COc1ccc(C(O)c2nc(-c3cccc(F)c3)cs2)cc1` (configuration not stated) as the molecule, how does the Potency read?
The Potency was inconclusive [inhibitor, single point].

For `O=C(NC1CCCC1)C(C1CC1)n1c(-c2cc3ccccc3[nH]2)nc2ccccc21` (configuration not stated), which Potency is on record?
Its Potency is inconclusive [inhibitor, single point].

How did the Potency turn out when `CN(c1ccc(O)cc1)c1nc(-c2cccs2)cs1` was run?
The Potency was inconclusive [inhibitor, single point].

How did the Potency turn out when `COc1ccc(CCNC(=O)C2CCCN(C(=O)c3ccc(Cl)cc3)C2)cc1` (configuration not stated) was run?
The Potency was inconclusive [inhibitor, partial curve, poor fit].

Which “activity change, negative = inhibition” value does the source give for `CC(=O)c1cc(C)ccc1OC(=O)CCN1C(=O)C2C3c4ccccc4C(c4ccccc43)C2C1=O` (configuration not stated) here?
The value was inactive: 0.881%.

How did the “activity change, negative = inhibition” value turn out when `Nc1c(-c2nc(-c3cccs3)no2)nnn1-c1ccccc1Cl` was run?
Its value is inactive: 2.77%.

How did the Potency turn out when `COCc1c(C(=O)Nc2cccc(S(=O)(=O)N3CCCCC3)c2)oc2ccccc12` was run?
The Potency was inconclusive [inhibitor, single point].

How did the “activity change, negative = inhibition” value turn out when `CCOC(=O)c1oc2cccc(OCC(O)CNC(C)C)c2c1C` (configuration not stated) was run?
Its value is inactive: -22.7%.

`CC(NC(=O)C1CCCN(S(=O)(=O)N2CCOCC2)C1)c1ccccc1` (configuration not stated) was tested. Which “activity change, negative = inhibition” value did it give?
Its value is inactive: 0.581%.

Which Potency does the source give for `Cc1cc(C)cc(OC(C)C(=O)Nc2nonc2-c2ccc(Br)cc2)c1` (configuration not stated) here?
The Potency was inconclusive [inhibitor, single point].

For `OCC1(CCOc2ccccc2)CCN(Cc2nc3ccc(F)cc3[nH]2)CC1`, which Potency is on record?
The Potency was inconclusive [inhibitor, single point].

How did the Potency turn out when `N#Cc1c(SCc2ccc(Cl)cc2)sc(C(=O)c2ccccc2)c1N` was run?
Its Potency is inconclusive [inhibitor, partial curve].

Which Potency does the source give for `CN(C)C(CNC(=O)CSc1nc2ccccc2c(=O)n1Cc1ccco1)c1ccccc1` (configuration not stated) here?
Its Potency is inconclusive [inhibitor, partial curve, poor fit].

`OC(Cc1ccnc2ccccc12)C(Cl)(Cl)Cl` (configuration not stated) was tested. Which Potency did it give?
Its Potency is inconclusive [inhibitor, partial curve, poor fit].

`CC(=O)C1=C(c2ccccc2)NC(=O)NC1c1ccccc1OCC(=O)Nc1ccccc1` (configuration not stated) was tested. Which Potency did it give?
Its Potency is inconclusive [inhibitor, single point].

For `O=C(Nc1ccccc1)c1cc(C2CCCCN2C(=O)CCc2ccccc2)on1` (configuration not stated), which Potency is on record?
The Potency was inconclusive [inhibitor, single point].

Which Potency does the source give for `CNNC(=S)Nc1cccc(SC)c1` here?
Its Potency is inconclusive [inhibitor, single point].

With `COC(=O)c1cc(NC(=O)CN(c2cccc(OC)c2)S(=O)(=O)c2ccccc2)ccc1Cl` as the molecule, how does the Potency read?
The Potency was inconclusive [inhibitor, single point].

How did the “activity change, negative = inhibition” value turn out when `Cn1cnc(S(=O)(=O)NC2CCN(Cc3ccccc3)CC2)c1` was run?
The value was inactive: 5.38%.

Which Potency does the source give for `CCOC(=O)c1c(C)[nH]c(C)c1C(=O)COC(=O)c1cccc(C)c1O` here?
The Potency was inconclusive [inhibitor, single point].

How did the Potency turn out when `COc1ccc(NC(=S)N2CCN(C/C=C/c3ccccc3)CC2)cc1OC` was run?
Its Potency is inconclusive [inhibitor, partial curve, poor fit].

For `Cc1cc2ncn(-c3ncnc4sc(C)c(C)c34)c2cc1C`, which Potency is on record?
The Potency was active: 7.08 µM.

Which Potency does the source give for `Cc1cc(C)c(C#N)c(Sc2nc(C)c([N+](=O)[O-])c(C)c2C#N)n1` here?
Its Potency is inconclusive [inhibitor, partial curve].

Which “activity change, negative = inhibition” value does the source give for `CCOC(=O)C1CCN(C(=O)c2cc3c(ccc4ccccc43)o2)CC1` here?
The value was inactive: 13%.

`O=C(O)CCc1ccc(-c2cccs2)o1` was tested. Which “activity change, negative = inhibition” value did it give?
The value was inactive: 0%.

For `O=C(NCCc1c[nH]c2ccccc12)C(=O)Nc1ccccc1`, which Potency is on record?
Its Potency is inconclusive [inhibitor, full curve, poor fit].

How did the Potency turn out when `CCN(CC)S(=O)(=O)c1ccc(OC)c(NC(=O)c2cc([N+](=O)[O-])ccc2Cl)c1` was run?
The Potency was inconclusive [inhibitor, full curve, poor fit].

`CCCC1=Nc2cc(C(=O)NCCCN3CCOCC3)ccc2Sc2ccccc21` was tested. Which Potency did it give?
The Potency was inconclusive [inhibitor, partial curve, poor fit].

Which Potency does the source give for `CCN(CC)c1nc(SCCOC(=O)Nc2ccccc2)nc(N(CC)CC)n1` here?
Its Potency is inconclusive [inhibitor, partial curve, poor fit].

With `O=C(C1CCCCC1)N1CCc2ccccc21` as the molecule, how does the Potency read?
The Potency was inconclusive [inhibitor, partial curve, poor fit].

Which Potency does the source give for `Cc1ccccc1CNC(=O)c1ccc(CSCc2ccccc2)cc1` here?
The Potency was inconclusive [inhibitor, partial curve, poor fit].

Which Potency does the source give for `CCc1ccc(CN(Cc2ccco2)C(=O)c2ccc(OC)cc2)cc1` here?
The Potency was inconclusive [inhibitor, single point].

For `COCCCNC(=O)CSC1=Nc2ccccc2C2=NC(CCC(=O)NCc3ccccc3OC)C(=O)N12` (configuration not stated), which Potency is on record?
Its Potency is inconclusive [inhibitor, single point].

With `Cc1ccccc1-c1cnc(C(O)c2c(C)ccc3ccccc23)[nH]1` (configuration not stated) as the molecule, how does the Potency read?
The Potency was inconclusive [inhibitor, partial curve, poor fit].

`COc1cccc(C2CC(c3cccc(NS(C)(=O)=O)c3)=NN2C(=O)c2ccccc2)c1OC` (configuration not stated) was tested. Which “activity change, negative = inhibition” value did it give?
The value was inactive: -32.4%.

Which Potency does the source give for `Cc1nnc(SCc2ccccc2)c2cc3sccc3n12` here?
Its Potency is inconclusive [inhibitor, single point].

For `O=C(Nc1ccc(Nc2ccccc2)cc1)c1ccccc1`, which Potency is on record?
Its Potency is inconclusive [inhibitor, single point].

`O=C(/C=C/Nc1ccc(Br)cc1F)c1ccccc1` was tested. Which Potency did it give?
Its Potency is inconclusive [inhibitor, partial curve, poor fit].

With `COc1ccc(N2CCN(C(=O)COC(=O)c3ccccc3OCc3ccc(F)cc3)CC2)cc1` as the molecule, how does the Potency read?
Its Potency is inconclusive [inhibitor, partial curve, poor fit].

How did the Potency turn out when `CCCc1ccc(C(C)NC(=S)NC2CCCCC2)cc1` (configuration not stated) was run?
Its Potency is inconclusive [inhibitor, partial curve, poor fit].

How did the Potency turn out when `C=CCN1C(=O)C(C)(C)N(C(=O)c2cccc([N+](=O)[O-])c2)c2ccccc21` was run?
The Potency was inconclusive [inhibitor, partial curve].

For `O=C(c1ccccc1[N+](=O)[O-])N1N=C(c2ccccc2)CC1(O)C(F)(F)F` (configuration not stated), which Potency is on record?
Its Potency is inconclusive [inhibitor, partial curve, poor fit].

How did the Potency turn out when `Cc1ccc(NC(=O)CCS(=O)(=O)c2ccccc2)cc1S(=O)(=O)N1CCCCCC1` was run?
Its Potency is inconclusive [inhibitor, partial curve, poor fit].

`S=C(Nc1ccccc1)N1CCN(c2ccccc2)CC1` was tested. Which Potency did it give?
The Potency was inconclusive [inhibitor, partial curve, poor fit].

With `CCN(Cc1cc(=O)n2ccsc2n1)c1cccc2ccccc12` as the molecule, how does the Potency read?
The Potency was inconclusive [inhibitor, single point].

With `CCS(=O)(=O)N1CCN(c2ncnc3sc(C)c(C)c23)CC1` as the molecule, how does the Potency read?
The Potency was inconclusive [inhibitor, single point].

Which Potency does the source give for `Cc1cccc(NC(=O)C2Cc3ccccc3CN2C(=O)OCc2ccccc2)c1C` (configuration not stated) here?
Its Potency is inconclusive [inhibitor, partial curve, poor fit].

`CCOCCC(=O)Nc1ccc2c(c1)c(=O)n(C)n2C/C=C/c1ccccc1` was tested. Which Potency did it give?
The Potency was inconclusive [inhibitor, full curve, poor fit].

From PubChem BioAssay AID624417 (National Center for Advancing Translational Sciences (NCATS), 2012)
